In the supplement of paper PMC3724861:
This is one part of the list.

tested on: T1, Caupolican (Caup) homeodomain DNA-binding domain; test: PBM E-score (8-mer, recovered from the published 9-mer minima) (E-score (dimensionless, -0.5 to 0.5)); Drosophila protein; higher = stronger relative binding preference, active = 0.31 or more
T1 sequence: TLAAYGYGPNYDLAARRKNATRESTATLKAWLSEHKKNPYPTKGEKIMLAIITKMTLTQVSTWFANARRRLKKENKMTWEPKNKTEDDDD
Summary of the method: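 Caup's homeodomain DNA-binding domain (residues 214-303) was made by in vitro transcription and translation and applied at 100 nM to custom-designed protein binding microarrays. Each value is an enrichment score that gives relative binding preference for a short DNA word, with higher meaning stronger. The 8-mer values were recovered from published 9-mer scores, each of which was the minimum of its two constituent 8-mer scores. A cutoff of 0.31 marks candidate sites.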

PBM E-score, ≥ 0.123:
AAGAGTGA

PBM E-score, ≥ 0.0409:
ACGACCGA

PBM E-score, inactive:
CGTATCTC -0.0862
ATCGTGGG -0.132
TGTCCCAA 0.0761
AGCCCGAT -0.0775
TCGTCTAA -0.0451
CCGGGATC -0.172
AGTGCGAG -0.126
AGAGGCCA -0.184
GACTCCTC -0.117
ACTCAGCA 0.0319
AGGTCAAA -0.0266
CTCGTCGC -0.147
CTCCCAAC -0.194
ATAGCGAG -0.0625
GACAGGGC -0.0448
GACTGGGA -0.0843
CTACCAAA 0.0218
GCGTCATA 0.0873
AGAACACT 0.108
TCTCCAGA -0.0511
CGAGTGAG -0.0716
GTCTTCGA -0.0595
ACCTGTGC 0.0281
GGTTGCTA -0.0979
ACATAGTC 0.274
ATAAATCG -0.0213
AGAAAGTC -0.0132
GAGTCGAC 0.0385
AACCCGCA -0.135
AGGCTTGG -0.0901
CCATGAGC -0.158
CTCCGAAC -0.0483
CATACAAG 0.3
GGAATTAA 0.108
CCGGAAAC -0.0865
GGTCAGAA -0.0475
GACAAGCC 0.212
CGTCGACA 0.116
ACCCTGCT -0.0977
ACTCTCAG -0.104
CTGCGATA -0.0217
CCTTTTAA -0.0428
GACACATC 0.131
AAGAGCCA -0.0558
CCAGGAGC -0.311
GACACTCC -0.0366
GGGGAAAC -0.102
GTATTGAC 0.21
CTCATGGA 0.0584
ATCCAATG 0.045
AAGAGACC -0.0707
GGGATGTA 0.253
AACTGGTG -0.017
CACCATCA 0.00831
AAGCTGGA -0.0863
TAGAGGCA -0.0603
GTTTCTCA 0.00502
CAATCGAA 0.0361

PBM E-score, active:
ATGTGTTG 0.34
